Reference: article PMC9262583
These are yes or no findings as the source states them, for the method shown. Binding seen in cells or lysates may run through a third protein. Some results given as binding are weak or reduced against the parent protein; the word gives no strength. For some assays here: Sequences can lack the tags named with a protein.

Protein sequences, listed by entry. Tags and fused reporters are not part of them.
UniProt Q9NFU0: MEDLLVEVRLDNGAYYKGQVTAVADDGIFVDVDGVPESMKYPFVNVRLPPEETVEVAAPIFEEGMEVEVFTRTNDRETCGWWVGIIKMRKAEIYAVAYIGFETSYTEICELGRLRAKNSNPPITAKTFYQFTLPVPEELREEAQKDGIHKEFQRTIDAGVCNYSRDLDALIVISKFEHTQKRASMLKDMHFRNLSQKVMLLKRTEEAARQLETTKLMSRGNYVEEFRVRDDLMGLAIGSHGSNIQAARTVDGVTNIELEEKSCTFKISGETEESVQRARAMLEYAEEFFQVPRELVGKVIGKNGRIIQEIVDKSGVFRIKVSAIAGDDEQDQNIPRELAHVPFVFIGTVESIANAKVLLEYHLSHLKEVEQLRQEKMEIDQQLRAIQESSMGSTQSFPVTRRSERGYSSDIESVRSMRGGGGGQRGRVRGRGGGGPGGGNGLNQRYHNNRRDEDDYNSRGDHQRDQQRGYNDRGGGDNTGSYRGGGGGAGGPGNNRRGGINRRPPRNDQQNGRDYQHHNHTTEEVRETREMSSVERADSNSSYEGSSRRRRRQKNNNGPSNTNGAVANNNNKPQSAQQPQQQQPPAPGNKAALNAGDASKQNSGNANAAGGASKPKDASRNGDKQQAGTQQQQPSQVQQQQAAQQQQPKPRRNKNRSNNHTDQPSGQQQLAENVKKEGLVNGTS

Assays:
[1] = target: T1, Glorund (Glo), endogenous (Drosophila (endogenous in late-ovaries)) (UniProt Q9VGH5); assay: co-IP; anti-Glo antibody (5B7) crosslinked to Dynabeads Protein G; wild-type late-ovary lysate; IP buffer with 200 mM NaCl
T1 sequence: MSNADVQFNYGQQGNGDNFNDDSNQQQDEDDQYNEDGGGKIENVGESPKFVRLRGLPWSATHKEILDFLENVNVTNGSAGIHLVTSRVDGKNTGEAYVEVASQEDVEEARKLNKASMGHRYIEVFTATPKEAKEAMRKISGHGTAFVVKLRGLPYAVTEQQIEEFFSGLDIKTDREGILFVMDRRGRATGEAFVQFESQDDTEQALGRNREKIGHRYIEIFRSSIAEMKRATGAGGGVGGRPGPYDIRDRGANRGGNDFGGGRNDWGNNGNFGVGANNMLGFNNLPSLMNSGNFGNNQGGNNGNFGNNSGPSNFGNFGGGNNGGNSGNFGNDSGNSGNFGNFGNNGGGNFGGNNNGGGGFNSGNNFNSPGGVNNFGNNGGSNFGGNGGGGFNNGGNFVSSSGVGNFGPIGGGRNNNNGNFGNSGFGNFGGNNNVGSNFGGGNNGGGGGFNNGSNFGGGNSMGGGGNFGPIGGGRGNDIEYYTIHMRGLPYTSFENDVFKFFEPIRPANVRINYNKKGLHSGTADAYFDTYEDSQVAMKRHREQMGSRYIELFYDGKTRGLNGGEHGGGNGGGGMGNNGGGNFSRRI

[2] = target: T2, GFP-GloΔqRRM1 (Drosophila) (UniProt Q9VGH5); assay: co-IP; anti-GFP immunoprecipitation from late-ovary extract in the presence of RNase; immunoblot with anti-dFMRP, anti-Glo or anti-GFP
T2 sequence: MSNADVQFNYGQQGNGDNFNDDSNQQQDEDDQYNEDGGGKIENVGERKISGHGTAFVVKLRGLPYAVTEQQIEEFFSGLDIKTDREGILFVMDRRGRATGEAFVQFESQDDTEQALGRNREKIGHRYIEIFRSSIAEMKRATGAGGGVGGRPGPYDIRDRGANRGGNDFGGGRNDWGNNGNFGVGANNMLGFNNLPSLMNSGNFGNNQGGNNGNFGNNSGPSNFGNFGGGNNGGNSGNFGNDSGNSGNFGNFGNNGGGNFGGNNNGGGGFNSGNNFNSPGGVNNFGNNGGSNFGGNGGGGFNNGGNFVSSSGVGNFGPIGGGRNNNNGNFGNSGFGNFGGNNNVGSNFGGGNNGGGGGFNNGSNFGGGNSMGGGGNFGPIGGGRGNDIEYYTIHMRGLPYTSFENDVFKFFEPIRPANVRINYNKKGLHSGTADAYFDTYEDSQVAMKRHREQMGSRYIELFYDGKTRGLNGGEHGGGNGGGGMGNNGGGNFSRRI

[3] = target: T3, GFP-GloΔqRRM2 (Drosophila) (UniProt Q9VGH5); assay: as above
T3 sequence: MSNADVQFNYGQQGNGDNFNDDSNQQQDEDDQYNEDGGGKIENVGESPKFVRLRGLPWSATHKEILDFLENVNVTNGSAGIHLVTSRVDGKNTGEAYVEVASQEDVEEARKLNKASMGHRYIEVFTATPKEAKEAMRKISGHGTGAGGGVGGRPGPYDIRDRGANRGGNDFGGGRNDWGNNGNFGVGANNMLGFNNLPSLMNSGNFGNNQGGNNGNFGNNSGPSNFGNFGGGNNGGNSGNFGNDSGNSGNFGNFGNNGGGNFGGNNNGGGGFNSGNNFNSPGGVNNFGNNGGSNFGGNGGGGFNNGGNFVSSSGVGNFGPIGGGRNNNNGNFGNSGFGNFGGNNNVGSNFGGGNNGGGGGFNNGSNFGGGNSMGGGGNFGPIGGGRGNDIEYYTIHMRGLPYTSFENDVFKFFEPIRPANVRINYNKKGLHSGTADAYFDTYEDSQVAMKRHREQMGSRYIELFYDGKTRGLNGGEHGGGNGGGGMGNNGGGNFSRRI

[4] = target: T4, GFP-GloΔqRRM3 (Drosophila) (UniProt Q9VGH5); assay: as above
T4 sequence: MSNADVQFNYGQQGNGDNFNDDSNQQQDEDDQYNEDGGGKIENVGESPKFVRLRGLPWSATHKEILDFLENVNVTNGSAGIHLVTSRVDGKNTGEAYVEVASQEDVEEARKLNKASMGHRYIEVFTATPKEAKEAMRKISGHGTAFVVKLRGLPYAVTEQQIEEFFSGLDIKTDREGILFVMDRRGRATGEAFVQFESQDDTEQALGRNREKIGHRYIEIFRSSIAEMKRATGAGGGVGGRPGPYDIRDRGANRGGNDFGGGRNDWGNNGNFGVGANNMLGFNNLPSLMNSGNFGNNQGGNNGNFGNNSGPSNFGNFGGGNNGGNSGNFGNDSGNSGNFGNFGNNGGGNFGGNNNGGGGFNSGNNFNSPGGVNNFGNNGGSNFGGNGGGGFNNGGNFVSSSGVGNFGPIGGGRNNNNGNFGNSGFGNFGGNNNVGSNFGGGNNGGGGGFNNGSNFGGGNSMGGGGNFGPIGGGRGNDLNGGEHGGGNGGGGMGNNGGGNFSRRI

[5] = target: T5, GFP-tagged Glorund (GFP-Glo) (Drosophila) (UniProt Q9VGH5); assay: as above
T5 sequence: T1 sequence

binding [1]: binds
binding [2]: binds
binding [3]: no binding
binding [4]: binds
binding [5]: binds
Substance: Drosophila fragile X mental retardation protein (dFMRP), endogenous (from UniProt Q9NFU0 1-684)
